# Measured values as given in PubChem BioAssay (Tox21).
# Several values for one entry are separate records, joined by “and”; a condition that tells them apart may be missing. Equal entries are not always repeated. This list was built around the results that the source calls inconclusive (neither active nor inactive); the mix of calls is not that of the screen. Potencies of inconclusive entries are doubtful fits and often do not repeat. Where a structure was tested more than once in an assay, its records may differ in their call. Activity calls are given as the source filed them. Unless noted, calls come from the whole dose curve; as a rule, active = well fitted cell-killing curve with a large enough effect in the repeat runs; inconclusive = weak or mixed curves, or effect the other way; inactive = no such curve, though single readings can be large or run the other way.
# Experiment: qHTS assay to identify small molecule antagonists of the progesterone receptor (PR) signaling pathway - cell viability counter screen (AID 1346798); note: nearly all actives have a fitted effect of over 50% in size
# Conditions: PR-UAS-bla HEK293T viability, CellTiter-Glo luminescence, 16 h; series mostly up to 92.4 µM; activity change, negative = cytotoxicity: at the top concentration
# Outline: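 ATP content as viability readout: CellTiter-Glo luminescence, 30 min room temperature, in PR-UAS-bla HEK293T cells after 16 hr compound/R5020 treatment at 37C and 5% CO2.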
# % is set by controls: 0 for no effect and ±100 for the full control effect; potency is the fitted concentration of half-maximal effect; tags give direction and shape of the fitted curve.
Structure (SMILES),Potency,"activity change, negative = cytotoxicity"
Cc1c(-c2ccc(O)cc2)n(Cc2ccc(OCCN3CCCCCC3)cc2)c2ccc(O)cc12,active: 33.5 µM,
CN1CCCCC1CCN1c2ccccc2Sc2ccc(S(C)=O)cc21 (stereo not given),"inconclusive: 29.8 µM [cytotoxic, single point]",
NCCCN1CCN(CCCN)CC1,"inconclusive: 15.4 µM [rising, partial curve, poor fit]",
O=C(O)CNCC(=O)O,,inactive: -2.59% [at 8.39 µM]
O=C1C(O)=C(O)C(=O)C(O)=C1O,"inconclusive: 1.19 µM [cytotoxic, partial curve, poor fit]",
Nc1ccc(C(=O)O)cc1,"inconclusive: 3.35 µM [cytotoxic, single point]",
COc1ccc2[nH]c(S(=O)Cc3ncc(C)c(OC)c3C)nc2n1 (stereo not given),"inconclusive: 18.8 µM [rising, partial curve]",
CC(=O)Nc1ccc2c(c1)Cc1cc(NC(C)=O)ccc1-2,inactive,
C=C1CC[C@H](O)CC1=C/C=C1\CCC[C@]2(C)[C@@H]([C@H](C)/C=C/[C@H](C)C(C)C)CC[C@@H]12,"inconclusive: 68 µM [rising, single point]",
C(=C\c1ccccc1)/CN1CCN(C(c2ccccc2)c2ccccc2)CC1,inconclusive: 3.76 µM,
Cc1ccc(C(=O)Oc2ccc(C(O)CNC(C)(C)C)cc2OC(=O)c2ccc(C)cc2)cc1 (stereo not given),,inactive: -12.5% [at 42.5 µM]
CC/C=C/CCO,active: 31.2 µM,
N=C(N)c1ccc(OCCCCCOc2ccc(C(=N)N)cc2)cc1,"inconclusive: 3.35 µM [rising, full curve, poor fit]",
C=CCCCCCCCCC(=O)OCCCC,"inconclusive: 2.17 µM [cytotoxic, single point]",
C=CCOC(=O)C(=C)C,inactive,
CCOC(=O)CC(C)C,,inactive: 2.23%
OCCCCC(O)CO (stereo not given),,inactive: 15.6%
CCCCCCC[N+](CC)(CC)CCCCc1ccc(Cl)cc1,"inconclusive: 0.596 µM [cytotoxic, single point]",
O=[N+]([O-])c1cccc(S(=O)(=O)O)c1,"inconclusive: 15.6 µM [cytotoxic, partial curve, poor fit]",
CC12CC3CC(C)(C1)CC(N)(C3)C2,,inactive: -13.9% [at 42.5 µM]

Structure (SMILES),Potency,"activity change, negative = cytotoxicity"
c1ccc(C[P+](c2ccccc2)(c2ccccc2)c2ccccc2)cc1,,inactive: 0.265%
Cn1c([N+](=O)[O-])cnc1COC(N)=O,inactive,
Clc1ccc(Cl)c(Cl)c1Cl,inactive,
Cc1c(N)cccc1C(F)(F)F,"inconclusive: 2.98 µM [cytotoxic, single point]",
O=C(O)CC(C(=O)O)S(=O)(=O)O (stereo not given),"inconclusive: 24.3 µM [rising, full curve, poor fit]",
COCc1c(C(C)C)nc(C(C)C)c(/C=C/[C@@H](O)C[C@@H](O)CC(=O)O)c1-c1ccc(F)cc1,"inconclusive: 150 nM [cytotoxic, full curve] and inconclusive: 27 nM [cytotoxic, full curve]",
CC(=O)S[C@@H]1CC2=CC(=O)CC[C@]2(C)[C@H]2CC[C@@]3(C)[C@@H](CC[C@@]34CCC(=O)O4)[C@H]12,active: 24.3 µM,
Cc1ncc(COP(=O)(O)O)c(C=O)c1O,"inconclusive: 3.35 µM [cytotoxic, single point]",
CCN(CC)C(=O)/C(C#N)=C/c1cc(O)c(O)c([N+](=O)[O-])c1,"inconclusive: 33.5 µM [rising, single point]",
CO[C@H]1C=CO[C@@]2(C)Oc3c(C)c(O)c4c(O)c(c5c(c4c3C2=O)=NC2(CCN(CC(C)C)CC2)N=5)NC(=O)/C(C)=C\C=C/[C@H](C)[C@H](O)[C@@H](C)[C@@H](O)[C@@H](C)[C@H](OC(C)=O)[C@@H]1C,"inconclusive: 30 µM [rising, single point]",
O=C(O)c1ccccc1C(=O)Nc1ccc(S(=O)(=O)Nc2nccs2)cc1,,inactive: -2.56% [at 42.5 µM]
CC/C=C\CCO,,inactive: -7.48%
Cc1cnc(C)c(C)n1,inconclusive: 32.1 µM [cytotoxic],
COc1ccc(CCN(C)CCCC(C#N)(c2cc(OC)c(OC)c(OC)c2)C(C)C)cc1OC (stereo not given),,inactive: -9.19% [at 42.5 µM]
CN(C)CCCN1c2ccccc2CCc2ccccc21,"inconclusive: 43.3 µM [cytotoxic, partial curve, poor fit] and inconclusive: 15 µM [cytotoxic, partial curve]",
CCOC(=O)/C=C\C(=O)OCC,"inconclusive: 27.3 µM [rising, single point]",
O=C(O)/C=C/c1ccc(/C=C/C(=O)O)cc1,,inactive: 12.9% [at 42.5 µM]
OCCNCc1ccccc1,"inconclusive: 13.7 µM [cytotoxic, single point]",
CCN(CC)C(=O)N(CC)CC,"inconclusive: 30.6 µM [cytotoxic, partial curve]",

# Experiment: qHTS assay to identify small molecule agonists of the progesterone receptor (PR) signaling pathway - cell viability counter screen (AID 1346799; calls by dose curve; note: nearly all actives have a fitted effect of over 45% in size)
# Conditions: PR-UAS-bla HEK293T viability, CellTiter-Glo luminescence, 16 h; series mostly up to 92.4 µM; activity change, negative = cytotoxicity: at the top concentration
# Outline: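 Cytotoxicity in PR-bla HEK293T cells: 16 h compound, 37C; CellTiter-Glo added post-FRET read; luminescence after 30 min RT.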
Structure (SMILES),Potency,"activity change, negative = cytotoxicity"
Cc1c(-c2ccc(O)cc2)n(Cc2ccc(OCCN3CCCCCC3)cc2)c2ccc(O)cc12,active: 29.8 µM,
CN1CCCCC1CCN1c2ccccc2Sc2ccc(S(C)=O)cc21 (stereo not given),"inconclusive: 11.9 µM [cytotoxic, partial curve, poor fit]",
NCCCN1CCN(CCCN)CC1,,inactive: 1%
O=C1C(O)=C(O)C(=O)C(O)=C1O,"inconclusive: 7.5 µM [cytotoxic, single point]",
Nc1ccc(C(=O)O)cc1,"inconclusive: 27.3 µM [cytotoxic, full curve, poor fit]",
COc1ccc2[nH]c(S(=O)Cc3ncc(C)c(OC)c3C)nc2n1 (stereo not given),"inconclusive: 11.9 µM [rising, partial curve]",
CC(=O)Nc1ccc2c(c1)Cc1cc(NC(C)=O)ccc1-2,inactive,
C=C1CC[C@H](O)CC1=C/C=C1\CCC[C@]2(C)[C@@H]([C@H](C)/C=C/[C@H](C)C(C)C)CC[C@@H]12,inactive,
C(=C\c1ccccc1)/CN1CCN(C(c2ccccc2)c2ccccc2)CC1,"inconclusive: 6.68 µM [rising, partial curve]",
Cc1ccc(C(=O)Oc2ccc(C(O)CNC(C)(C)C)cc2OC(=O)c2ccc(C)cc2)cc1 (stereo not given),,inactive: -22% [at 42.5 µM]
CC/C=C/CCO,active: 19.7 µM,
N=C(N)c1ccc(OCCCCCOc2ccc(C(=N)N)cc2)cc1,"inconclusive: 23.2 µM [rising, full curve, poor fit]",
C=CCCCCCCCCC(=O)OCCCC,,inactive: 2.19%
C=CCOC(=O)C(=C)C,"inconclusive: 28.4 µM [rising, single point]",
OCCCCC(O)CO (stereo not given),"inconclusive: 64.9 µM [cytotoxic, single point]",
CCCCCCC[N+](CC)(CC)CCCCc1ccc(Cl)cc1,"inconclusive: 3.76 µM [cytotoxic, partial curve, poor fit]",
O=[N+]([O-])c1cccc(S(=O)(=O)O)c1,"inconclusive: 43.9 µM [rising, partial curve, poor fit]",
CC12CC3CC(C)(C1)CC(N)(C3)C2,,inactive: 8.18% [at 42.5 µM]

Structure (SMILES),Potency,"activity change, negative = cytotoxicity"
c1ccc(C[P+](c2ccccc2)(c2ccccc2)c2ccccc2)cc1,"inconclusive: 8.63 µM [rising, full curve]",
Cn1c([N+](=O)[O-])cnc1COC(N)=O,inactive,
Clc1ccc(Cl)c(Cl)c1Cl,inactive,
Cc1c(N)cccc1C(F)(F)F,"inconclusive: 7.5 µM [cytotoxic, single point]",
O=C(O)CC(C(=O)O)S(=O)(=O)O (stereo not given),,inactive: 0.921%
COCc1c(C(C)C)nc(C(C)C)c(/C=C/[C@@H](O)C[C@@H](O)CC(=O)O)c1-c1ccc(F)cc1,"inconclusive: 9.4 nM [cytotoxic, full curve, poor fit] and inconclusive: 42.8 nM [cytotoxic, full curve]",
CC(=O)S[C@@H]1CC2=CC(=O)CC[C@]2(C)[C@H]2CC[C@@]3(C)[C@@H](CC[C@@]34CCC(=O)O4)[C@H]12,inconclusive: 54.5 µM [cytotoxic],
Cc1ncc(COP(=O)(O)O)c(C=O)c1O,,inactive: 0% [at 42.5 µM]
CCN(CC)C(=O)/C(C#N)=C/c1cc(O)c(O)c([N+](=O)[O-])c1,"inconclusive: 33.5 µM [rising, single point]",
CO[C@H]1C=CO[C@@]2(C)Oc3c(C)c(O)c4c(O)c(c5c(c4c3C2=O)=NC2(CCN(CC(C)C)CC2)N=5)NC(=O)/C(C)=C\C=C/[C@H](C)[C@H](O)[C@@H](C)[C@@H](O)[C@@H](C)[C@H](OC(C)=O)[C@@H]1C,"inconclusive: 67.1 µM [rising, single point]",
CC/C=C\CCO,,inactive: -6.37%
Cc1cnc(C)c(C)n1,active: 28.6 µM,
COc1ccc(CCN(C)CCCC(C#N)(c2cc(OC)c(OC)c(OC)c2)C(C)C)cc1OC (stereo not given),,inactive: -14.6% [at 42.5 µM]
CN(C)CCCN1c2ccccc2CCc2ccccc21,active: 21.7 µM,
CCOC(=O)/C=C\C(=O)OCC,inactive,
O=C(O)/C=C/c1ccc(/C=C/C(=O)O)cc1,"inconclusive: 0.844 µM [rising, full curve, poor fit]",
OCCNCc1ccccc1,,inactive: -9.99%
CCN(CC)C(=O)N(CC)CC,,inactive: -26.1%
